Drawing on the RNAGym collection of RNA variant scans (doi:10.7554/elife.90254), this text covers self-cleavage for 167 variants.

The source gives no read counts; variants with many changes may rest on few reads.

B1: LINE1-mini (parent)
chain: GGCAGAGCUCAACACAGCGUGGCAAAGUGGCUGUGGCUAGACUGCC

The series covers variants of B1. The series is described as follows: self-cleavage, relative activity (ratio to wild type); higher = more cleavage; in vitro, sequencing; the parent is a self-cleaving ribozyme.
With U20A G30U C31A U38G, the self-cleavage came to 0.03.

Turning to C18G U34G G35U, the self-cleavage was 0.03.

Consider G19A C23A A25U U38A, for which the self-cleavage worked out at 0.22.

As to G19C G21A C31A, the self-cleavage stood at 0.69.

Take G19U G27A C31U G36C: the self-cleavage amounted to 0.02.

In the case of U20A U28G G44C, the self-cleavage amounted to 0.44.

As for C18U G22U C31U C45U, the self-cleavage is 0.12.

As to G19U C23G A25U G40A, the self-cleavage was 0.02.

Turning to C18U G21C A41U, the self-cleavage amounted to 0.11.

Take C18G G27U G33A C37G: the self-cleavage was determined as 0.02.

For the variant C18G U34G U43C, the self-cleavage was determined as 0.02.

As to G19U C23G C42A, the self-cleavage came out at 0.02.

For the variant G19C U34G G35A G44U, the self-cleavage was determined as 0.05.

With G19C U43G C45U, the self-cleavage worked out at 0.03.

For the variant G19U U20G A26G C37U, the self-cleavage is 0.08.

Consider G19U A25U G27C, for which the self-cleavage turned out to be 0.5.

Turning to U20A G30A G36U A39C, the self-cleavage amounted to 0.04.

On to G19C U20A C45A, for which the self-cleavage came to 2.01.

Take G19U G21A C46U: the self-cleavage amounted to 0.97.

Regarding G19A A26U G27C U32C G36A, the self-cleavage is 0.03.

On to U20A G30A U32C, for which the self-cleavage stood at 0.05.

In the case of C18G G22U G33A C37A U38G, the self-cleavage worked out at 0.

In the case of U20C A26G G27C G33U, the self-cleavage amounted to 0.03.

Regarding G19U A25G G36U C37A, the self-cleavage was 0.01.

As for U20A G22U C31U U38G, the self-cleavage worked out at 0.01.

Consider C18U A26C C42U, for which the self-cleavage came out at 0.55.

Consider U20A G27A C31U, for which the self-cleavage worked out at 0.45.

In the case of C18G U38A G44A, the self-cleavage came out at 0.07.

For G19U G27C C46G, the self-cleavage was found to be 0.56.

With C18G G22C G35U C42G, the self-cleavage was 0.03.

On to G19A G29A U32G, for which the self-cleavage came out at 0.68.

G19A G21U G33A: the self-cleavage turned out to be 0.13.

In the case of U20A G30U A39G G40C, the self-cleavage was determined as 0.1.

As for G19U C23U G30U G36C G40C, the self-cleavage worked out at 0.05.

For C18U G19U C23U G33A, the self-cleavage worked out at 0.01.

On to U20A U28G A41U, for which the self-cleavage stood at 0.12.

On to G19U U34G G40U, for which the self-cleavage came out at 0.02.

Take C18U G36C A41C U43C C46U: the self-cleavage was 0.05.

As for G19U A24U G29A, the self-cleavage was 0.55.

Regarding C18U G33A A39G C46A, the self-cleavage was found to be 0.01.

Take U20C A39U A41C: the self-cleavage was determined as 0.02.

For the variant U20C A24C A25G A39C C42G, the self-cleavage was 0.02.

As to G19U G21A U34C, the self-cleavage was found to be 0.23.

Regarding G19C A25G C45U, the self-cleavage is 0.19.

Turning to U20C A26G G36C C46U, the self-cleavage was found to be 0.03.

Turning to G19A C23G C31U U32A, the self-cleavage turned out to be 0.11.

On to C18G G27A G36C A41C, for which the self-cleavage stood at 0.03.

For the variant C18U G33C G35C C37A, the self-cleavage worked out at 0.03.

For G19C A24G A41G, the self-cleavage amounted to 0.15.

For the variant G19C G33U C46U, the self-cleavage worked out at 0.4.

Regarding G19U U20G G22C, the self-cleavage was 1.38.

On to G19C G33U G40C, for which the self-cleavage amounted to 0.03.

As for C18U G19A U20C G21A U38G G40A C46A, the self-cleavage was found to be 0.01.

U20A G21C G36A: the self-cleavage amounted to 0.02.

As to G19C A25U G29A G40U G44A, the self-cleavage is 0.02.

In the case of C18U G29A U32G, the self-cleavage came out at 0.11.

For the variant G19U G22U U43C C45A, the self-cleavage stood at 0.02.

As for C18U G22C U38C C45A, the self-cleavage amounted to 0.03.

On to C18U A25G U28G, for which the self-cleavage worked out at 0.38.

C18U A25G U28C: the self-cleavage worked out at 0.1.

With U20A G21U G30A C31A G36A, the self-cleavage was 0.03.

Turning to G19A U20G A25G, the self-cleavage amounted to 0.34.

With G19C G36U U38A, the self-cleavage is 0.01.

With C18G G22C A25C U28C C45U, the self-cleavage was found to be 0.22.

G19A G33C G36A: the self-cleavage came out at 0.07.

With C18U G21A A41G, the self-cleavage came to 0.48.

For the variant U20A U28G C31A, the self-cleavage was determined as 0.55.

With G19C A25C G30A, the self-cleavage came to 0.19.

Take G19C A25C G30C: the self-cleavage is 1.16.

With C18G U20C G29A, the self-cleavage was found to be 0.46.

As to U20A C23A U34C A41G, the self-cleavage is 0.07.

With U20A G35A A41U, the self-cleavage came out at 0.29.

As for U20A G35A A41C, the self-cleavage came out at 0.04.

For U20A G21U G44A, the self-cleavage was 0.43.

Turning to G19C G30C A41U, the self-cleavage is 0.32.

For the variant C18U G35U C46A, the self-cleavage is 0.01.

G19U U20C G36C: the self-cleavage came out at 0.13.

With U20A G21A G44C, the self-cleavage worked out at 0.25.

For U20A G29C G33C, the self-cleavage was 0.19.

As for C18G G22A C23A U34C U43G C46G, the self-cleavage worked out at 0.03.

Consider G19C U28C G36C, for which the self-cleavage came to 0.05.

As for G19U C31G U34C, the self-cleavage came to 0.03.

For G19U G30U G35C, the self-cleavage came out at 0.1.

As for G19C U34C C37U, the self-cleavage turned out to be 0.02.

On to G19A C23U G35U, for which the self-cleavage came to 0.04.

As to C18G G29U G30U, the self-cleavage was 0.34.

Consider C18G G27U G29U C45A, for which the self-cleavage turned out to be 0.32.

On to G19A G21U A24G U38A C45U, for which the self-cleavage came out at 0.5.

As for G19A U32C G36A C45U, the self-cleavage came to 0.01.

With U20A A39G U43A, the self-cleavage was determined as 0.02.

For C18U U20A G27U G29U G35U, the self-cleavage was determined as 0.14.

Consider G19U A41C C46U, for which the self-cleavage was determined as 0.01.

Take G19A G27C G44C: the self-cleavage worked out at 0.69.

Regarding C18G U20A A25G A39C, the self-cleavage amounted to 0.17.

Turning to G19C C37U G40U, the self-cleavage amounted to 0.08.

In the case of C18G G29A C37G, the self-cleavage came to 0.05.

Take G19A G29U G35U U38G: the self-cleavage was determined as 0.03.

Regarding U20A G33A C37A, the self-cleavage is 0.06.

Take G19C G30A G35C: the self-cleavage came out at 0.07.

Turning to U20A U32A U43A, the self-cleavage was determined as 0.08.

C18U A26G G30U: the self-cleavage turned out to be 0.61.

Take C18U U28A A39U: the self-cleavage came out at 0.13.

C18G G19U G21A C31G G36A C45U: the self-cleavage turned out to be 0.01.

Regarding C18U G19C C23U, the self-cleavage was found to be 0.46.

As for C18U U28G C31G, the self-cleavage worked out at 0.07.

Regarding G19A A25G A39U, the self-cleavage turned out to be 1.37.

As for C18G G33A G40C C42A, the self-cleavage is 0.01.

For the variant U20A U32G U34C A39G, the self-cleavage was 0.08.

Consider C18U G22C A26U, for which the self-cleavage is 2.1.

Turning to G19A G29C G36U, the self-cleavage turned out to be 0.02.

As for C18U U20C C31U, the self-cleavage came out at 0.12.

Take C18U G29U C31U G33C G35A A41U: the self-cleavage turned out to be 0.02.

G19U A24U G29U U32C C37U: the self-cleavage was found to be 0.04.

For G19U C23U A26C C46U, the self-cleavage was 0.45.

U20A C23U C31U G33C: the self-cleavage turned out to be 0.14.

Take C18G G22U G27C U32A: the self-cleavage came to 0.01.

As to C18G U32G G33U, the self-cleavage stood at 0.03.

With G19C U20C A26C G27U U28G, the self-cleavage came out at 0.09.

For C18U A24G G30U U38C, the self-cleavage was 0.24.

G19C G36C G40U C45A: the self-cleavage is 0.05.

As for C18G U28C G30A, the self-cleavage turned out to be 1.06.

In the case of C18U U32A U34G, the self-cleavage amounted to 0.

With G19U G27C G40A, the self-cleavage worked out at 0.09.

Take U20A U28C G44U: the self-cleavage stood at 0.04.

For C18U C31A U32C, the self-cleavage was found to be 0.05.

As to G19U U32G C45G, the self-cleavage was found to be 0.06.

In the case of G19A A25U C31U C37U, the self-cleavage came out at 0.03.

With G19C G30C U32C G33C, the self-cleavage amounted to 0.03.

Take C18U G21U C31G: the self-cleavage came out at 0.08.

On to G19C A26U U43G, for which the self-cleavage was found to be 0.03.

For C18U C31A A41G, the self-cleavage is 0.01.

In the case of C18U G33U G44U C45U, the self-cleavage came out at 0.1.

With C18U U28A G36U, the self-cleavage came to 0.06.

With C18U G27U G35U C46U, the self-cleavage was 0.04.

For the variant U20A A25G U38G C45G, the self-cleavage came out at 0.

Take G19U G21U A24G: the self-cleavage turned out to be 0.36.

Consider G19A G27A C31A, for which the self-cleavage turned out to be 1.65.

Consider G19U G33U U38C A39G, for which the self-cleavage is 0.02.

Consider C18U C42A C46A, for which the self-cleavage came to 0.01.

For the variant G19A A26C G27U U38A, the self-cleavage came out at 0.69.

On to G19A A25G G35A G44C, for which the self-cleavage is 0.06.

For the variant U20C A26U G33U C45G, the self-cleavage came out at 0.02.

Consider G19C G27U U43A, for which the self-cleavage was determined as 0.01.

C18U C23U C37U: the self-cleavage stood at 0.02.

On to G19U G36C A39G, for which the self-cleavage amounted to 0.04.

On to C18U C23G C31A G36A, for which the self-cleavage was determined as 0.04.

Regarding U20A U38G G40C, the self-cleavage was 0.06.

As to G19U G21U A24U G33C, the self-cleavage is 0.1.

With G19U A39C C42G, the self-cleavage amounted to 0.13.

As for G19C G22U G33U G44A, the self-cleavage amounted to 0.22.

On to G19U G27U C31A G44C C46A, for which the self-cleavage amounted to 0.

On to U20A G29C C42U, for which the self-cleavage is 0.19.

Consider C18G G29U G33A, for which the self-cleavage stood at 0.03.

Regarding C18U G22C A24U, the self-cleavage was 0.79.

As for U20A C23A A39U, the self-cleavage was 0.2.

G19A G27A A39C: the self-cleavage stood at 0.08.

With C18G G27A G40U, the self-cleavage came out at 0.39.

As to U20C A25C C45G C46U, the self-cleavage is 0.02.

Take C18G G30A U32A C46A: the self-cleavage was determined as 0.05.

Consider C18G G21A A26G U28A C31U, for which the self-cleavage stood at 0.02.

Take G19U A25C C46A: the self-cleavage amounted to 0.75.

With C18U U34A G44U C46G, the self-cleavage came out at 0.01.

For the variant U20A G21A A39U, the self-cleavage worked out at 0.27.

G19A G29U G44A: the self-cleavage was 0.18.

As for U20A C37A A41U, the self-cleavage is 0.05.

As for G19A G22C A26U G35U A41U, the self-cleavage is 0.2.

In the case of C18U G19U A24U C42U, the self-cleavage is 0.11.
